{"source": "PubChem BioAssay AID488896", "about": "(Broad Institute, 2010)", "note": "Hit rate of the full screen: of about 320,000 compounds, about 3,100 (0.97%) were called active. The shares of active, inactive and inconclusive entries below differ from those in the screen.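 The calls were made as follows: active = mean replicate inhibition of at least 70% and a set share of replicates each scoring 70 or more; inconclusive = meets just one of the two criteria; inactive = fails both criteria.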", "data": [{"molecular_target": "Scavenger receptor class B member 1 (Mus musculus) (UniProt Q61009)", "sequence (Q61009 whole entry, looked up)": "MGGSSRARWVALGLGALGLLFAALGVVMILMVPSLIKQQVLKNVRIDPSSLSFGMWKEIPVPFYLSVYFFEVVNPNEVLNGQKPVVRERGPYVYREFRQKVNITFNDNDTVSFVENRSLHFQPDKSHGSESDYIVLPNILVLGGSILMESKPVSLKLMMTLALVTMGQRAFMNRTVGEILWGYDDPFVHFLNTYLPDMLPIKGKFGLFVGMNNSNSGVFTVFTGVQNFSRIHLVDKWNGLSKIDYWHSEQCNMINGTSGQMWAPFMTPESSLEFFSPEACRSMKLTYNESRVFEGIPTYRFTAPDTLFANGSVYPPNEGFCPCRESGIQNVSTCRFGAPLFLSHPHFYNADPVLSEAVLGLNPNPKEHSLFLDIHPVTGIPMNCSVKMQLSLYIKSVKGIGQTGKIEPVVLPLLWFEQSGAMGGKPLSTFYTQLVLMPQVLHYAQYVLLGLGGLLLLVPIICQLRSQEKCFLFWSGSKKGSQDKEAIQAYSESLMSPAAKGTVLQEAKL", "assay": "inhibitors of SR-BI mediated HDL lipid uptake, primary screen, ldlA[mSR-BI] cells, fluorescence, single point (AID 488896);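 also: 0% = median of neutral control wells and 100% = median of positive control wells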", "conditions": "ldlA[mSR-BI] CHO cells, DiI-HDL uptake fluorescence, 3 h; at 12.5 µM; stronger effect = higher value", "values": [{"smiles": "O=C(Nc1ccccc1F)OC1CN2CCC1CC2", "note": "(stereo not drawn)", "inhibition": "active: 84%"}, {"smiles": "COc1cc(C(=O)Nc2ccc(Br)cc2C(=O)c2ccccc2)cc(OC)c1OC", "inhibition": "active: 81%"}, {"smiles": "C[CH2][Hg][S]c1ccccc1C(=O)O", "inhibition": "active: 106%"}, {"smiles": "Cc1nn(Cc2ccc(Cl)cc2Cl)c(Cl)c1C(=O)Nc1ccc(OC(F)F)cc1", "inhibition": "inconclusive: 71.9%"}, {"smiles": "COC(=O)C1=C(c2cc3ccccc3o2)C[C@@H]2CC[C@H]1N2C(=O)N1CCOCC1", "inhibition": "inactive: 9.13%"}, {"smiles": "Clc1ccc(C[n+]2c(-c3ccccc3)cc(-c3ccccc3)cc2-c2ccccc2)cc1", "inhibition": "inactive: -7.98%"}, {"smiles": "Cc1ccc(OCCn2cccc2/C=C2/C(=O)NC(=O)N(Cc3ccco3)C2=O)cc1", "inhibition": "inactive: 0.184%"}, {"smiles": "O=C(COc1ccc(Br)cc1)N1CCN(Cc2c[nH]c3ccccc23)CC1", "inhibition": "inactive: -3.34%"}, {"smiles": "O=C(N/N=C/C1C(=O)NC(=S)N(c2ccccc2)C1=O)c1cc(Br)c(O)c(Br)c1", "note": "(stereo not drawn)", "inhibition": "inconclusive: 70.2%"}, {"smiles": "CNC1(c2ccc(F)cc2)CCCCC1", "inhibition": "inconclusive: 71.6%"}, {"smiles": "CCN(CC)P(=O)(NC(=O)c1cccn1C)N(CC)CC", "inhibition": "inactive: -5.91%"}, {"smiles": "CN(C)c1nc(OCCNC(=O)COc2ccc(Cl)cc2Cl)nc(N2CCCCC2)n1", "inhibition": "inconclusive: 74.8%"}, {"smiles": "CCCCCCn1c(=O)c(C(=O)Nc2cnccn2)c(O)c2ccccc21", "inhibition": "active: 81.6%"}, {"smiles": "CC1Oc2cc3c(-c4c(O)cc(O)c5c(O)c6c(cc45)OC(C)C(C)C6=O)c(O)cc(O)c3c(O)c2C(=O)C1C", "note": "(stereo not drawn)", "inhibition": "active: 80.3%"}, {"smiles": "CCN(CC)S(=O)(=O)c1ccc(NN=C(C#N)C#N)cc1", "inhibition": "inconclusive: 70.9%"}, {"smiles": "CCCCn1c(O)c(C(C)=NCc2cccnc2)c(=O)[nH]c1=O", "inhibition": "inconclusive: 71.2%"}, {"smiles": "O=[N+]([O-])c1ccc(N2CCNCC2)c(Cl)c1", "inhibition": "active: 78.2%"}, {"smiles": "CC/C(CC(c1ccccc1)c1c(O)c2ccccc2oc1=O)=N\\NC(N)=S", "note": "(stereo not drawn)", "inhibition": "active: 80.4%"}]}]}
